Values quoted from earlier work in PMC11006913.
Substitutions are numbered along the chain they refer to. The list shows a part of the results.

Tests used:
Conditions in all cases: PBM; conditions not shown; double strand, one strand shown; scale: upbm affinity estimate (log intensity, higher = more binding, comparable within an allelic series)
[1] = target: T1, HESX1 E149K (Homo sapiens) (UniProt Q9UBX0)
T1 sequence: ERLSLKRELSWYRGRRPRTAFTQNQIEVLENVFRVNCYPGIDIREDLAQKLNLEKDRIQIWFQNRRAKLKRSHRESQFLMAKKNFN

[2] = target: T2, HESX1 N125S (Homo sapiens) (UniProt Q9UBX0)
T2 sequence: T1 sequence with N31S, K55E

[3] = target: T3, HESX1 R160C (Homo sapiens) (UniProt Q9UBX0)
T3 sequence: T1 sequence with K55E, R66C

[4] = target: HOXD13 I297V (Homo sapiens) (UniProt P35453)
[5] = target: HOXD13 I322L (Homo sapiens) (UniProt P35453)
[6] = target: HOXD13 N298S (Homo sapiens) (UniProt P35453)
[7] = target: HOXD13 Q325K (Homo sapiens) (UniProt P35453)
[8] = target: HOXD13 Q325R (Homo sapiens) (UniProt P35453)
[9] = target: HOXD13 R306W (Homo sapiens) (UniProt P35453)
[10] = target: HOXD13 S316C (Homo sapiens) (UniProt P35453)

AACCGCCG [8-mer AACCGCCG]
binding signal [1]: 10 | binding signal [2]: 7.75 | binding signal [3]: 10.2

AGCCGGGG [8-mer AGCCGGGG]
binding signal [1]: 9.84 | binding signal [2]: 7.61 | binding signal [3]: 9.82

CGTGCCGA [8-mer CGTGCCGA]
binding signal [1]: 10 | binding signal [2]: 7.5 | binding signal [3]: 10.1

CAGTGAGG [8-mer CAGTGAGG]
binding signal [1]: 9.98 | binding signal [2]: 7.88 | binding signal [3]: 10.1

GAGCTTGC [8-mer GAGCTTGC]
binding signal [1]: 9.9 | binding signal [2]: 7.23 | binding signal [3]: 9.96

ACCCACGG [8-mer ACCCACGG]
binding signal [1]: 9.89 | binding signal [2]: 7.87 | binding signal [3]: 9.95

CAAGCGGC [8-mer CAAGCGGC]
binding signal [1]: 10 | binding signal [2]: 7.59 | binding signal [3]: 10.1

CGTCCGCC [8-mer CGTCCGCC]
binding signal [1]: 9.9 | binding signal [2]: 7.57 | binding signal [3]: 9.96

ACCGGAGG [8-mer ACCGGAGG]
binding signal [1]: 9.92 | binding signal [2]: 7.87 | binding signal [3]: 10

TTAATGAA [8-mer TTAATGAA]
binding signal [1]: 10.9 | binding signal [2]: 10.5 | binding signal [3]: 10.2

CGTGGCGC [8-mer CGTGGCGC]
binding signal [1]: 9.91 | binding signal [2]: 7.49 | binding signal [3]: 9.99

CCACGCTC [8-mer CCACGCTC]
binding signal [1]: 10 | binding signal [2]: 7.64 | binding signal [3]: 9.98

CCGGATCG [8-mer CCGGATCG]
binding signal [1]: 10 | binding signal [2]: 7.67 | binding signal [3]: 10.1

CGCCGGCG [8-mer CGCCGGCG]
binding signal [1]: 10 | binding signal [2]: 7.73 | binding signal [3]: 9.99

CATTATTA [8-mer CATTATTA]
binding signal [1]: 10.9 | binding signal [2]: 10.1 | binding signal [3]: 10.3

CCGTCTAG [8-mer CCGTCTAG]
binding signal [1]: 10 | binding signal [2]: 7.7 | binding signal [3]: 10

CCCTAAGG [8-mer CCCTAAGG]
binding signal [1]: 9.87 | binding signal [2]: 7.67 | binding signal [3]: 10

GGGACCCC [8-mer GGGACCCC]
binding signal [1]: 9.91 | binding signal [2]: 7.61 | binding signal [3]: 9.94

AAGTTCGG [8-mer AAGTTCGG]
binding signal [1]: 10.1 | binding signal [2]: 7.7 | binding signal [3]: 10.1

GCCGCCAC [8-mer GCCGCCAC]
binding signal [1]: 9.9 | binding signal [2]: 7.49 | binding signal [3]: 10

AGGCCCGC [8-mer AGGCCCGC]
binding signal [1]: 9.76 | binding signal [2]: 7.55 | binding signal [3]: 9.96

CAGTCCCG [8-mer CAGTCCCG]
binding signal [1]: 9.95 | binding signal [2]: 7.86 | binding signal [3]: 10

GACCGGGC [8-mer GACCGGGC]
binding signal [1]: 9.87 | binding signal [2]: 7.64 | binding signal [3]: 10.1

AGGGCCCG [8-mer AGGGCCCG]
binding signal [1]: 9.93 | binding signal [2]: 7.49 | binding signal [3]: 10

CAAAATTA [8-mer CAAAATTA]
binding signal [1]: 10.6 | binding signal [2]: 9.71 | binding signal [3]: 10.2

ACGGTGCC [8-mer ACGGTGCC]
binding signal [1]: 10 | binding signal [2]: 7.66 | binding signal [3]: 10

CCCGGCCC [8-mer CCCGGCCC]
binding signal [1]: 9.82 | binding signal [2]: 7.82 | binding signal [3]: 9.92

AGCGACGA [8-mer AGCGACGA]
binding signal [1]: 10 | binding signal [2]: 7.93 | binding signal [3]: 10.1

TGATTAAA [8-mer TGATTAAA]
binding signal [1]: 11 | binding signal [2]: 10.2 | binding signal [3]: 10.4

CTCGCCCC [8-mer CTCGCCCC]
binding signal [1]: 9.91 | binding signal [2]: 7.86 | binding signal [3]: 10

CTCCTCTC [8-mer CTCCTCTC]
binding signal [1]: 9.85 | binding signal [2]: 7.53 | binding signal [3]: 9.97

GAGGAGCA [8-mer GAGGAGCA]
binding signal [1]: 9.94 | binding signal [2]: 7.66 | binding signal [3]: 10.2

AGCCCCTG [8-mer AGCCCCTG]
binding signal [1]: 9.94 | binding signal [2]: 7.75 | binding signal [3]: 10.1

CGGGTACC [8-mer CGGGTACC]
binding signal [1]: 9.98 | binding signal [2]: 7.82 | binding signal [3]: 9.96

AATTATCG [8-mer AATTATCG]
binding signal [1]: 11.4 | binding signal [2]: 11.2 | binding signal [3]: 10.3

CAGGGGGC [8-mer CAGGGGGC]
binding signal [1]: 9.78 | binding signal [2]: 7.57 | binding signal [3]: 9.99

CCACGGCC [8-mer CCACGGCC]
binding signal [1]: 9.87 | binding signal [2]: 7.49 | binding signal [3]: 10

CCAGCCCA [8-mer CCAGCCCA]
binding signal [1]: 9.94 | binding signal [2]: 7.58 | binding signal [3]: 10.1

AAGCACCG [8-mer AAGCACCG]
binding signal [1]: 10.1 | binding signal [2]: 7.88 | binding signal [3]: 10.1

CAGGACCC [8-mer CAGGACCC]
binding signal [1]: 9.97 | binding signal [2]: 7.7 | binding signal [3]: 10.1

AACCGGGT [8-mer AACCGGGT]
binding signal [1]: 9.97 | binding signal [2]: 7.83 | binding signal [3]: 10.1

CAGTGCGC [8-mer CAGTGCGC]
binding signal [1]: 9.93 | binding signal [2]: 7.67 | binding signal [3]: 10.2

CGTAGGCC [8-mer CGTAGGCC]
binding signal [1]: 10 | binding signal [2]: 7.69 | binding signal [3]: 10.2

CCCAGGAA [8-mer CCCAGGAA]
binding signal [1]: 9.94 | binding signal [2]: 7.76 | binding signal [3]: 10

ACCGAGCG [8-mer ACCGAGCG]
binding signal [1]: 9.93 | binding signal [2]: 7.73 | binding signal [3]: 10.1

CCCCCCAG [8-mer CCCCCCAG]
binding signal [1]: 9.64 | binding signal [2]: 7.55 | binding signal [3]: 9.76

GGACGCCC [8-mer GGACGCCC]
binding signal [1]: 9.83 | binding signal [2]: 7.42 | binding signal [3]: 10

GGCGTCCC [8-mer GGCGTCCC]
binding signal [1]: 9.87 | binding signal [2]: 7.82 | binding signal [3]: 9.96

CTGCTGCC [8-mer CTGCTGCC]
binding signal [1]: 9.87 | binding signal [2]: 7.72 | binding signal [3]: 10

AGGCGAGA [8-mer AGGCGAGA]
binding signal [1]: 9.92 | binding signal [2]: 7.7 | binding signal [3]: 9.97

AAGGGGGA [8-mer AAGGGGGA]
binding signal [1]: 9.88 | binding signal [2]: 7.84 | binding signal [3]: 10

CCCCGAAC [8-mer CCCCGAAC]
binding signal [1]: 9.99 | binding signal [2]: 8.02 | binding signal [3]: 10.1

CCGCGGAC [8-mer CCGCGGAC]
binding signal [1]: 9.96 | binding signal [2]: 7.41 | binding signal [3]: 10.1

CGGACTCC [8-mer CGGACTCC]
binding signal [1]: 9.86 | binding signal [2]: 7.54 | binding signal [3]: 10.1

GCCTGCGC [8-mer GCCTGCGC]
binding signal [1]: 9.86 | binding signal [2]: 7.43 | binding signal [3]: 9.98

AGGACGCC [8-mer AGGACGCC]
binding signal [1]: 10.1 | binding signal [2]: 7.51 | binding signal [3]: 10

AGGCCAGG [8-mer AGGCCAGG]
binding signal [1]: 9.89 | binding signal [2]: 7.58 | binding signal [3]: 10

GGCCGGCC [8-mer GGCCGGCC]
binding signal [1]: 9.77 | binding signal [2]: 7.71 | binding signal [3]: 9.88

GGCCCGAA [8-mer GGCCCGAA]
binding signal [1]: 9.95 | binding signal [2]: 7.73 | binding signal [3]: 10 | binding signal [4]: 9.5 | binding signal [5]: 9.38 | binding signal [6]: 9.43 | binding signal [7]: 9.5 | binding signal [8]: 9.43 | binding signal [9]: 9.4 | binding signal [10]: 9.41

ACCGGGGA [8-mer ACCGGGGA]
binding signal [1]: 9.77 | binding signal [2]: 7.61 | binding signal [3]: 9.92

AACGGGCC [8-mer AACGGGCC]
binding signal [1]: 10 | binding signal [2]: 7.71 | binding signal [3]: 10

CCTCCCAG [8-mer CCTCCCAG]
binding signal [1]: 9.94 | binding signal [2]: 7.54 | binding signal [3]: 10.2

GGCGCGCC [8-mer GGCGCGCC]
binding signal [1]: 9.9 | binding signal [2]: 8.16 | binding signal [3]: 9.94
